Data reported in article PMC4336329 (PLoS ONE, 2015).
The campaign covered roughly 310,000 compounds. About 2,200 (0.71%) showed an effect of 50% or more. The effect is printed as a negative number. Some of the results follow.

molecular target: human ether-à-go-go-related gene (hERG) potassium channel (human, UniProt Q12809); assay: primary screen, population patch clamp on CHO cells stably expressing hERG
Sequence (Q12809 whole entry, looked up): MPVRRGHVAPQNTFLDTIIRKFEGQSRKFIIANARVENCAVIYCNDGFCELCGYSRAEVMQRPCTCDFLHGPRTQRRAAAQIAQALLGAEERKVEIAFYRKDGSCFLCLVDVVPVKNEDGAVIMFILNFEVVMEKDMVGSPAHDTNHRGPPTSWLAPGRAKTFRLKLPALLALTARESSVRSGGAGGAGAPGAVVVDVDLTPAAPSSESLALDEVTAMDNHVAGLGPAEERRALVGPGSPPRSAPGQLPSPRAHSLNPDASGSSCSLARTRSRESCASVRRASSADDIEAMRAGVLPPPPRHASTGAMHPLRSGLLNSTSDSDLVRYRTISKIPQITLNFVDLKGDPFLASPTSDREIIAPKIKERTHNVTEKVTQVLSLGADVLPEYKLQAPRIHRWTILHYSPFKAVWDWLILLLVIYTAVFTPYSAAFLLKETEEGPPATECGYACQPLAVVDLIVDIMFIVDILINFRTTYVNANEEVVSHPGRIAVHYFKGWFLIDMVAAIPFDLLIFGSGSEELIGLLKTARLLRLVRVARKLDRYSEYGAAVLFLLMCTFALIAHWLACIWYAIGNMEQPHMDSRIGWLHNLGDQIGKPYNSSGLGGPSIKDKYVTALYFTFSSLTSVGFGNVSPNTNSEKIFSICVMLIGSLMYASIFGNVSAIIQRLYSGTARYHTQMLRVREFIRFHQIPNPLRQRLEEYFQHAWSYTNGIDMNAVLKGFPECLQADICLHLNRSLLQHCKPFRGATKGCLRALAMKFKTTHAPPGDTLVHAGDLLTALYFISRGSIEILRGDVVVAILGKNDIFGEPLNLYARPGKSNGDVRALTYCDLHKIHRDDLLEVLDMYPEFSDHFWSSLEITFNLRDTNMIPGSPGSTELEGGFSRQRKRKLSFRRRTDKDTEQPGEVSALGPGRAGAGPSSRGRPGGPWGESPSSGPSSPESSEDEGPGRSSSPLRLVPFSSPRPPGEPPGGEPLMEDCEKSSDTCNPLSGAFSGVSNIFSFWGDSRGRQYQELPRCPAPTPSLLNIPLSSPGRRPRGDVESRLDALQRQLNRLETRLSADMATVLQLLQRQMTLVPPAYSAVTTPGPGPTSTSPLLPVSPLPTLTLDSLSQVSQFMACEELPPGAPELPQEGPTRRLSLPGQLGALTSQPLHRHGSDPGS

| SMILES | hERG current change (%, negative = inhibition) at 1uM |
| --- | --- |
| CSCCC(NC(=O)COc1ccccc1)C(=O)N(C)Cc1ccc(F)cc1 (stereo not shown) | 3.61% |
| O=C(Nc1cccn2ncnc12)C(F)(F)F | 11.8% |
| CCOc1ccc(-n2c(SCC(=O)NC(C)CC)nc3n[nH]c(C)c3c2=N)cc1 (stereo not shown) | 14% |
| Cn1c(SCc2ccccc2)nc2ccsc2c1=O | 11.6% |
| O=C(N/N=C/c1ccc(O)cc1)c1cncc(Br)c1 | 10.4% |
| CC(C)C(C(=O)Nc1ccc2c(c1)OCO2)N1C(=O)c2ccccc2C1=O (stereo not shown) | 8.07% |
| CCc1nnc(NC(=O)CSc2ccc(-c3ccco3)nn2)s1 | 19.4% |
| CC1CCC2(CC1)NC(=O)N(CC(=O)Nc1sc3c(c1C(N)=O)CCC3)C2=O (stereo not shown) | 5.2% |
| CS(=O)(=O)c1ccc2nc(NC(=O)CN3CCCCCC3)sc2c1.O=C(O)C(=O)O | 11.9% |
| COc1ccc(COC(=O)C2=C(C)NC(=O)NC2c2ccc(O)cc2)cc1 (stereo not shown) | -4.72% |
| Cc1ccc(N2CCCC2=O)cc1S(=O)(=O)N1CCOCC1 | 9.48% |
| CCOc1ccc(NC(=O)CN(Cc2ccccc2)S(C)(=O)=O)cc1 | 7% |
| COc1ccc(-n2c(Cc3cccn3C)nnc2SCC(=O)Nc2nc(C)cs2)cc1 | 2.34% |
| CC(C)N(CCNC(=O)c1oc(=O)c2ccccc2c1-c1ccccc1)Cc1ccco1 | -32.5% |
| CCCc1nnc(SCC(=O)Nc2nc(C)cs2)n1CCOC | 16.2% |
| O=C(NCCN1CCOCC1)c1ccccc1[N+](=O)[O-] | 5.4% |
| Fc1ccccc1-n1cc(-c2ccccc2)[nH]c1=S | 10.2% |
| COc1ccc(S(=O)(=O)NCCCCCC(=O)O)cc1C(=O)O | 10.9% |
| CC1(C)C2([N+](=O)[O-])CN3CC1([N+](=O)[O-])CN(C2)C31CCCC1 | -1.67% |
| CC(C)(C)c1ccc(C(=O)Nc2ccc(C(=O)N3CCCC3)cc2)cc1 | 0.261% |
| Clc1ccc(C#Cc2cccnc2)cc1 | 13.7% |
| Oc1ccccc1-c1cc(C(F)(F)C(F)F)[nH]n1 | 4.8% |
| Cc1c(OCC(=O)NC2CC(C)(C)NC(C)(C)C2)ccc2c3c(c(=O)oc12)CCC3 | 17.6% |

| SMILES | hERG current change (%, negative = inhibition) at 1uM |
| --- | --- |
| COc1ccc(C2(NC(C)=O)CCN(C(=O)CCC(=O)O)CC2)cc1 | 12.6% |
| COc1ccc(C(=O)N/N=C/c2ccc(OC)c(COc3ccc(F)cc3F)c2)cc1 | 12.3% |
| COCc1nnc(NS(=O)(=O)c2ccc(Br)cc2)s1 | 9.94% |
| CCOc1ccc(NC(=S)N(CCc2ccncc2)C(C)C)cc1 | -31.5% |
| Cn1c(Cc2ccccc2)nnc1SCC(=O)NC1CC1 | 18.2% |
| Cc1ccc(C(=O)OCC(=O)c2c(N)n(C)c(=O)n(C)c2=O)cc1S(=O)(=O)N1CCOCC1 | -4.26% |
| CCC(=O)c1c(OCc2ccccc2)ccc2c(C)cc(=O)oc12 | 9.69% |
| C[C@H](NC(=O)c1nc[nH]c1C(=O)N[C@@H](C)c1ccccc1)c1ccccc1 | 11.7% |
| CCn1c(COc2ccccc2C)nc2ccccc21 | 4.87% |
| CCc1ccccc1NC(=O)c1cc(-c2ccc3c(c2)OCO3)on1 | 5.83% |
| Cc1nn(C)cc1CN(C)C(=O)c1cc(COc2ccc(F)cc2F)on1 | 10.8% |
| c1ccc(Nc2ccc(-n3ccnc3)nn2)cc1 | 7.53% |
| COc1ccccc1C(=O)NCC(=O)OC(C)C(=O)N1CCOCC1 (stereo not shown) | 18.9% |
| Cn1c(O)c(N=NC(=O)CNC(=O)/C=C/c2ccccc2)c2ccccc21 | 3.74% |
| C=CCc1ccc(OCCOCCN(C)C)c(OC)c1.O=C(O)C(=O)O | -10.3% |
| COC(=O)[C@H](C(C)C)n1c(C)c(C(C)=O)c(C(C)=O)c1C | 8.5% |
| NC(=S)NNC(=O)Nc1ccc(Cl)c(Cl)c1 | 17.3% |
| Cn1cc(S(=O)(=O)NCc2ccc(Cl)cc2)c(=O)n(C)c1=O | 9.74% |
| Cc1cc(OCc2cc(C(=O)N(C)CC3CCOCC3)no2)cc(C)c1Cl | 7.55% |
| O=C(COC(=O)c1ncc(Cl)c(Cl)c1Cl)NCc1cccs1 | 13.6% |
| c1ccc(NC2=NCCN2CC2CCCC2)cc1 | 8.38% |
| Brc1ccccc1CNCCc1ccc2c(c1)OCO2 | 15.4% |
| Cc1ccc2nc(C)c3c(c2c1)N(c1ccc(F)cc1)CC3 | -94.5% |
